Measurements reported in article PMC4336329 (PLoS ONE, 2015).
Out of some 310,000 compounds screened, about 14,000 (4.5%) showed an effect of 50% or more. The effect is printed as a negative number. The list shows a part of the results.

target: human ether-à-go-go-related gene (hERG) potassium channel (human, UniProt Q12809); assay: primary screen, population patch clamp on CHO cells stably expressing hERG
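Further: peak tail current of the secondary pulse compared with the same well before compound.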

Sequence of human ether-à-go-go-related gene (hERG) potassium channel (Q12809 whole entry, looked up): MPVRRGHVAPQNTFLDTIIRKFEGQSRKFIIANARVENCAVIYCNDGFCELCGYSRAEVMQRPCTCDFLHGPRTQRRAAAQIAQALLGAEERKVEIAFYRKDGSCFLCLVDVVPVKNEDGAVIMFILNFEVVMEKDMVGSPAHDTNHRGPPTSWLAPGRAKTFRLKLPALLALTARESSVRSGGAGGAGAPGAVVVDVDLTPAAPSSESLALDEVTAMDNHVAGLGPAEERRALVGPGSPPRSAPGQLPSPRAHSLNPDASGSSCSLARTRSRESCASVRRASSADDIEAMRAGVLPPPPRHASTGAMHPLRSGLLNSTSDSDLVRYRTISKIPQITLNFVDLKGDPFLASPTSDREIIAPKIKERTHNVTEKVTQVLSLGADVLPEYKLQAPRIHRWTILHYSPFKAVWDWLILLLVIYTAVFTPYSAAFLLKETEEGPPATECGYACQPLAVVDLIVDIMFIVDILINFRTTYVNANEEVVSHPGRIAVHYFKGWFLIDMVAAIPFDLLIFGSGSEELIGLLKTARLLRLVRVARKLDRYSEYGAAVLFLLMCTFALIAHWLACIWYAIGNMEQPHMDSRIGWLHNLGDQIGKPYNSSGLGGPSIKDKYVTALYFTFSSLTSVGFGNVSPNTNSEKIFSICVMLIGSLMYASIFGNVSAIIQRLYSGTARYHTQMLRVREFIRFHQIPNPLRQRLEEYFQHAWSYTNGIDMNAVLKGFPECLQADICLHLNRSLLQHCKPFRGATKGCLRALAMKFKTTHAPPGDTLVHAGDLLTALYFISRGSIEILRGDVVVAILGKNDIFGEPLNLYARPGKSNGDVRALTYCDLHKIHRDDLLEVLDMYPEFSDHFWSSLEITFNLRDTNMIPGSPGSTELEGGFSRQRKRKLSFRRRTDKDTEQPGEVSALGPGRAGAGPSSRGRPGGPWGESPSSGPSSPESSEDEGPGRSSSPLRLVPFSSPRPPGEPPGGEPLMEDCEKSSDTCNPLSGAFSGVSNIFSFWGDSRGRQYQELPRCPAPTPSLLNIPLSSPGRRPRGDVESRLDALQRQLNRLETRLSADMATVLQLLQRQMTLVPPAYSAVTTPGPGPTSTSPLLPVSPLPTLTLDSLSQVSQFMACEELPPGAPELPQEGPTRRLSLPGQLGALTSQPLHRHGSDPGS

Structure (SMILES) | hERG current change (%, negative = inhibition) at 10uM
CC(=O)N1c2c(cc(Br)cc2S(=O)(=O)N2CCN(c3ccccn3)CC2)CC1C (stereo not drawn) | -12.3%
CCCCN=C1NN=C(c2cc3ccccc3o2)CS1 | -25.9%
O=C(Nc1ccc2c(c1)OCCO2)c1ccc(Cl)c([N+](=O)[O-])c1 | 6.48%
Cc1csc(NC(=O)c2ccc(S(=O)(=O)N(C)c3ccccc3)cc2)n1 | -2.94%
CCOc1ccc(/C=N\NC(=O)c2c(C)nc3cc(C)ccn23)cc1 | -2.47%
Cc1cccc(CSCc2ccc(C(=O)NC3CCCC3)o2)c1 | -55.5%
Cc1cc(N/N=C/c2ccccc2)nc(N2CCOCC2)n1 | -47.8%
COc1ccc(OC)c(NC(=O)CS(=O)(=O)c2cn(CC(=O)N3CCOCC3)c3ccccc23)c1 | -1.38%
COc1ccc2c(CC(=O)Nc3ccccc3N3CCOCC3)coc2c1 | -39.9%
O=C(COc1ccc(Br)cc1)Nc1ccc(-c2nnc(-c3ccco3)o2)cc1 | -1.86%
COc1ccc(S(=O)(=O)N2CCCC2)c(C)c1C | -12.1%
CCOC(=O)N1CCN(C(=O)CSc2nc3c(cnn3-c3ccc(C)cc3)c(=O)[nH]2)CC1 | -33.3%
Cc1ccc(NC(=O)Cn2nnc(C(=O)NCc3ccco3)c2N)cc1 | 4.66%
CCN(CC(=O)Nc1ccccc1C(F)(F)F)C(=O)Cc1cccs1 | 3.23%
Cc1cc(C(=O)NNS(=O)(=O)c2cccc(Cl)c2)nn1C(C)(C)C | -3.12%
O=C(Nc1cccc(C(=O)N2CCCC2)c1)c1ccccc1Cl | 1.24%
CC1(N2CCOCC2)CC2(O)C(=[N+]1[O-])CCc1c2no[n+]1[O-] (stereo not drawn) | 7.65%
COc1ccc(/C=N/NC(=O)c2[nH]c3ccc(Br)cc3c2-c2ccccc2)c(C(=O)O)c1OC | -4.97%
O=C(CNC(=O)c1ccccc1)OCc1cccc(Br)c1 | -17.8%
CCOc1ccc(-c2nnc(N3CCCCC3)c3ccccc23)cc1 | -6.17%
Cc1cccc(N=N/C(=C\O)C(=O)c2cccs2)c1 | 0.309%
C=CCn1c(-c2sc(-c3ccccc3)nc2C)n[nH]c1=S | 8.64%

Structure (SMILES) | hERG current change (%, negative = inhibition) at 10uM
CC1CCN(S(=O)(=O)c2ccc(NC(=O)Cc3ccccc3)cc2)CC1 | 13%
Cc1ccc(C(=O)NCCSc2c(C)[nH]c3ccccc23)cc1[N+](=O)[O-] | -4.03%
O=C(O)/C=C/C(=O)N1CCN(c2ccccc2F)CC1 | 7.85%
C=CCOC(=O)C(C#N)c1nc2ccccc2nc1N1CCN(Cc2ccccc2)CC1 (stereo not drawn) | -62.1%
O=C(CN1CCCCCC1)Nc1ccc(Br)cc1Br | -0.929%
COc1ccc(NC(=O)c2cc(-c3ccccc3O)n[nH]2)cc1Cl | 22.9%
C=CCn1c(CNS(=O)(=O)c2ccc(Cl)cc2)n[nH]c1=S | 7.76%
CN1C(=O)C2(OCC(CO)([N+](=O)[O-])CO2)c2ccccc21 (stereo not drawn) | 23.9%
CC1(C)C(C(=O)N2CCN(C(=O)c3ccccc3)CC2)C1(C)C | -3.62%
CCSc1nnc(NC(=O)c2cccnc2Cl)s1 | 16.3%
C=CCn1c(Sc2nnc(C)s2)nc2c1c(=O)[nH]c(=O)n2C | 11.2%
COc1cc(S(=O)(=O)NCC(c2ccco2)N2CCCCC2)ccc1NC(C)=O.Cl (stereo not drawn) | -3.07%
CCC(=O)Nc1ccc(N2CCN(C(=O)c3ccccc3C)CC2)cc1 | 0.168%
O=C(O)C1CCc2sc3[nH]c(=S)n(-c4ccccc4)c(=O)c3c21 (stereo not drawn) | 21.6%
Cn1c(-n2c(-c3ccco3)nc3ccccc3c2=O)nc2ccccc21 | 11.6%
O=c1c2ccccc2c(C=NCCc2ccccc2)c(O)n1Cc1ccccc1 | -5.61%
COc1ccc(-n2c3c(cc(C(=O)Nc4ccc(C)cc4)c2=O)C(=O)CCC3)cc1 | -5.94%
O=C(NCc1ccccc1CN1CCCC1)c1cc2cc(Cl)ccc2o1 | -74.6%
CCN1CCN(Cc2nc3c(c(=O)n(C)c(=O)n3C)n2CC(=O)c2ccccc2)CC1 | 7.92%
CN1CCC(=NNC(=O)C(=O)NCc2ccccc2)CC1 | -2.22%
Cc1cccc(C(=O)N2CCCC(N3CCN(c4ccccc4F)CC3)C2)n1 (stereo not drawn) | 4.76%
CCOC(=O)C(C)Sc1nnc2n1C(C)(C)Cc1ccccc1-2 (stereo not drawn) | -12.7%

Structure (SMILES) | hERG current change (%, negative = inhibition) at 10uM
Cc1ccc(CNC(=O)C2COc3ccccc3O2)cc1 (stereo not drawn) | 13.1%
COc1ccc(C(=O)NC2CCN(S(=O)(=O)c3ccc(F)cc3)CC2)cc1 | 13.6%
COc1cccc(N/C=C/C(=O)c2ccc(Cl)cc2)c1 | -1.99%
COc1ccc(CNC(=O)CSc2ncnc3ccccc23)cc1OC | -1.39%
CCN(CC)S(=O)(=O)c1ccc(C(=O)N2CCc3ccccc32)cc1 | -0.652%
O=C(Nc1cnn(C23CC4CC(CC(C4)C2)C3)c1)c1cc(-c2ccccc2)on1 | -9.54%
CC(NC(=O)CCC(=O)N1CCN(S(=O)(=O)c2ccc(Cl)cc2)CC1)c1ccccc1 (stereo not drawn) | -38.1%
CC(=O)N1c2ccccc2Oc2cc3ccccc3cc21 | 4.69%
COc1cccc(-c2cc(C(=O)NCC3CCCO3)c3ccccc3n2)c1 (stereo not drawn) | -0.277%
COc1ccc(-c2cc(C(F)(F)F)n3ncc(C(=O)N(C)Cc4ccccc4)c3n2)cc1 | -17%
Clc1ccc(Oc2nc(N3CCOCC3)nc(N3CCOCC3)n2)cc1 | -1.64%
Cn1c(=O)oc2cc(S(=O)(=O)Nc3ccc4c(c3)OCCO4)ccc21 | 4.22%
Cc1cccnc1NC(=O)c1c(O)c2cccc3c2n(c1=O)CCC3 | 7.16%
COc1ccc(OC)c(C2C(C(=O)c3ccc(C)o3)=C(O)C(=O)N2c2cc(C)on2)c1 (stereo not drawn) | 10.2%
COc1cc(C(=O)NC(=S)Nc2csc(-c3ccc(F)cc3)n2)cc(OC)c1OC | 15.1%
CCOc1cc2ccccc2cc1C(=O)Nc1ccccn1 | -3.68%
CC1C/C(=N/NC(=O)c2cccs2)CC(C)(C)C1 (stereo not drawn) | 3.84%
N#C/C(=C\c1cn[nH]c1-c1ccccc1Br)C(=O)O | 46.4%
Cc1ccc(C(=O)NC2CCN(C(=O)Nc3ccc(F)cc3)CC2)cc1 | 1.24%
O=C(CNC(=S)N(Cc1ccccc1F)C1CCCCC1)NCCCN1CCOCC1 | 6.08%
Cc1ccc(C)c(S(=O)(=O)N2CCN(CC(=O)NC(=O)NCc3ccco3)CC2)c1 | -24.5%
CC(=O)Nc1ccc2c(c1)nc1n2CCN(C(C)c2ccccc2)C1 (stereo not drawn) | 12.1%

Structure (SMILES) | hERG current change (%, negative = inhibition) at 10uM
CCOC(=O)C1CCN(C(=O)CCc2c(C)nc3cc(-c4ccc(OC)cc4OC)nn3c2C)CC1 | -70.7%
O=C(CSc1nc2ccccc2[nH]1)N1c2ccccc2Sc2ccccc21 | 7.74%
CCOC(=O)c1ccc2c(c1)C1C=CCC1C(C(=O)OCC)N2 (stereo not drawn) | -33.7%
C/C(=N\NC(=O)c1ccc(OC2CCCC2)cc1)c1ccc(C)s1 | 3.48%
Cc1occc1C(=O)NCCc1cccc(Cl)c1 | -2.27%
O=c1c2ccccc2nc2c3ccccc3cnn12 | -26.1%
COc1ccc(-c2nc(CS(=O)CC(=O)NCc3ccc4c(c3)OCO4)c(C)o2)cc1OC (stereo not drawn) | -14.3%
O=C(COC(=O)/C=C/c1ccc(Cl)cc1)Nc1ccc2[nH]c(=O)[nH]c2c1 | 16.3%
Cc1ccc(NC(=O)CSCC(=O)NC2CCCCC2)cc1 | -7.04%
Cc1nc(-c2ccc(Cl)cc2)sc1C(=O)NN | -1.69%
O=C(CSc1ncnc2scc(-c3ccccc3)c12)N1CCN(Cc2ccc3c(c2)OCO3)CC1 | -35.7%
CC(=O)c1ccc(OCCn2c(SCC(=O)O)nc3ccccc32)cc1 | 9.04%
N#C/C(=C\c1ccccc1)C(=O)Nc1cccnc1 | 6.36%
Cc1ccc(C(=O)NCC(=O)OCC(=O)N(CC(C)C)c2c(N)n(Cc3ccccc3)c(=O)[nH]c2=O)cc1C | 20.3%
CCCCNC(=S)N1CCN(C(c2ccccc2)c2ccccc2)CC1 | 20.9%
CC(=O)Nn1c(COc2ccccc2C)nc2ccccc2c1=O | -4.17%
Cc1ccc(Nc2c(-c3ccco3)nc3ccccn23)cc1 | 2.78%
COC(=O)c1ccccc1NC(=O)CSc1nc2ccccc2c(=O)[nH]1 | 13.6%
CS(=O)(=O)NCc1ccc(C(=O)NCCOc2ccccc2)cc1 | -2.18%
O=C(CNc1cc(S(=O)(=O)N2CCOCC2)ccc1NCC1CCCO1)Nc1cccc(F)c1 (stereo not drawn) | -12%
CCOc1ccc2ncc(S(=O)(=O)c3ccccc3)c(N3CCN(c4ccc(OC)cc4)CC3)c2c1 | -10.9%
